Assay results taken from US20220025050A1 (OSE IMMUNOTHERAPEUTICS, published 2022).

Molecular target: T1, recombinant hPD1 (Sino Biologicals, reference 10377-H08H) (human, UniProt Q15116 part only)
T1 construct: also called Human recombinant PD-1 protein; PD1-His recombinant protein
Assay: ELISA: hPD-1 immobilized, anti-human Fc peroxidase

T1 sequence (Q15116 25-167 limits assumed): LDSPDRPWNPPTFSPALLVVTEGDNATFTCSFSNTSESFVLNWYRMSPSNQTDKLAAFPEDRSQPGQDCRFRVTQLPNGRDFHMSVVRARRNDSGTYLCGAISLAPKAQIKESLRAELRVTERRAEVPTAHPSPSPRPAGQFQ

EC50 [ng/mL] | Binder
2.11 | Chimeric anti-PD1 fused to IL-7 on heavy and light chains (other, not shown: small tags and cut ends) heavy: QIQLVQSGPELKKPGETVKISCKASGYTFTHYGMNWVKQAPGKGLKWMGWINTNTGEPTYAEEFKGRFAFSLETSASAAFLQINNLKNEDTATYFCAKEREPGMDSWGQGTSVTVSSASTKGPSVFPLAPCSRSTSESTAALGCLVKDYFPEPVTVSWNSGALTSGVHTFPAVLQSSGLYSLSSVVTVPSSSLGTKTYTCNVDHKPSNTKVDKRV[human IgG4 Fc with S228P L445P (EU numbers) omitted here]DCDIEGKDGKQYESVLMVSIDQLLDSMKEIGSNCLNNEFNFFKRHICDANKEGMFLFRAARKLRQFLKMNSTGDFDLHLLKVSEGTTILLNCTGQVKGRKPAALGEAQPTKSLEENKSLKEQKKLNDLCFLKRLLQEIKTCWNKILMGTKEH light: DVLLTQTPLSLPVSLGDQASISCRSSQNIVHANGNTYLEWYLQKPGQSPKLLIYKVSNRFSGVPDRFSGSGSGTDFTLKITRVEAEDLGVYYCFQGSHVPNTFGGGTKLEIKRTVAAPSVFIFPPSDEQLKSGTASVVCLLNNFYPREAKVQWKVDNALQSGNSQESVTEQDSKDSTYSLSSTLTLSKADYEKHKVYACEVTHQGLSSPVTKSFNRGECDCDIEGKDGKQYESVLMVSIDQLLDSMKEIGSNCLNNEFNFFKRHICDANKEGMFLFRAARKLRQFLKMNSTGDFDLHLLKVSEGTTILLNCTGQVKGRKPAALGEAQPTKSLEENKSLKEQKKLNDLCFLKRLLQEIKTCWNKILMGTKEH
3.9 | Humanized anti-PD1 (VH SEQ ID NO:19, VL SEQ ID NO:28) fused to IL-7 on heavy and light chains (other) heavy: QIQLVQSGSELKKPGASVKVSCKASGYTFTHYAMNWVRQAPGQGLEWMGWINTNTGEPTYAQGFTGRFVFSLDTSVSTAYLQISSLKAEDTAVYYCAREREPGMDTWGQGTLVTVSSASTKGPSVFPLAPCSRSTSESTAALGCLVKDYFPEPVTVSWNSGALTSGVHTFPAVLQSSGLYSLSSVVTVPSSSLGTKTYTCNVDHKPSNTKVDKRV[human IgG4 Fc with S228P L445P (EU numbers) omitted here]GGGGSGGGGSGGGGSDCDIEGKDGKQYESVLMVSIDQLLDSMKEIGSNCLNNEFNFFKRHICDANKEGMFLFRAARKLRQFLKMNSTGDFDLHLLKVSEGTTILLNCTGQVKGRKPAALGEAQPTKSLEENKSLKEQKKLNDLCFLKRLLQEIKTCWNKILMGTKEH light: DVVMTQSPLSLPVTLGQPASISCRSSQSLVHANTNTYLEWYQQRPGQSPRLLIYKVSNRFSGVPDRFSGSGSGTDFTLKISRVEAEDVGVYYCFQGTHVPNTFGQGTKLEIKRTVAAPSVFIFPPSDEQLKSGTASVVCLLNNFYPREAKVQWKVDNALQSGNSQESVTEQDSKDSTYSLSSTLTLSKADYEKHKVYACEVTHQGLSSPVTKSFNRGECGGGGSGGGGSGGGGSDCDIEGKDGKQYESVLMVSIDQLLDSMKEIGSNCLNNEFNFFKRHICDANKEGMFLFRAARKLRQFLKMNSTGDFDLHLLKVSEGTTILLNCTGQVKGRKPAALGEAQPTKSLEENKSLKEQKKLNDLCFLKRLLQEIKTCWNKILMGTKEH
